# Results reported in the supplement of paper PMC11417369.
# ± gives the standard deviation of the averaged measurements. Some of the results follow.
# Tested on: PfAP2-LT AP2 domain (GST-tagged)
# Experiment: gcPBM binding intensity (ln(normalized median fluorescence intensity)); higher = stronger DNA binding
# Summary of the method: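 GST-fused DNA-binding domains of P. falciparum, expressed in E. coli, were applied at about 25 μg on average for 1 h to an Agilent 4 × 180k array of primer-extended double-stranded 36-bp intergenic genomic probes and negative controls. Binding intensity is the highest Masliner-normalised natural-log median intensity across replicate spots of either probe orientation, measured with Alexa488 anti-GST antibody and a 488 nm scan.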
row,Sequence,gcPBM binding intensity (ln)
1,TTTTTTTTTTTCAATAGTACTTTCCATTTACATATA [XGTACX_site3889],8.59 ± 0.53
2,TAATTGAGCAAATGAGTGCACAGCATAAAGTATAGT [GTGCAC_site9497],9.23 ± 0.51
3,AAATTTAAAATAAGTAGTACATAATATAAATAAATA [XGTACX_site3592],8.73 ± 0.42
4,GTACTTGTATTATGCACACATATAATTAAACATATA [CACACA_site3312],8.97 ± 0.34
5,TATAAAAGAAACTATACACACATATTTTAAATATTT [CACACA_site2753],8.79 ± 0.53
6,TATACATACCCACCCACACACAAAAAAAAAAAAAAA [CACACA_site4632],9.76 ± 0.3
7,TATACTCATAAATACACACACATATATATATATATA [CACACA_site5822],9.81 ± 0.014
8,GGGGGCTTTTATAAAAGTACAAAATGAATAAAAATT [XGTACX_site2393],8.82 ± 0.16
9,TTTTAAAAAAAATAAAAAATAAACAATAATAAATAA [CACACA_negctrl_site721],8.31 ± 0.69
10,TCTTTATTATTCGCCACACACATATATATATATATA [CACACA_site3077],9.66 ± 0.11
11,TATATATATAAAAATACACACATGAATGAATATATA [CACACA_site419],9.07 ± 0.42
12,AAAATATAATATAATGCACACATAAAAAAAAAATCA [CACACA_site7922],9.07 ± 0.49
13,TATCTGTAAATGGACACACACATATATATATATATA [CACACA_site5926],9.9 ± 0.49
14,ATATTGTGTTATAAATGTACACAATTTCCTTTCATA [XGTACX_site7481],8.71 ± 0.43
15,ATATATGTTCCTTTTACACACATAATCTTTTTTTTA [CACACA_site2661],9.14 ± 0.29
16,TTTTTAAAAATATACACACACAGATATTATATATAT [CACACA_site786],9.1 ± 0.26
17,AAAATATAATATAATGCACACATAAAAAAAAAAAAA [CACACA_site7989],8.98 ± 0.42
18,TTCATATAGAATTGTACACACAAAAACGACATTGTG [CACACA_site7061],8.98 ± 0.33
19,AAAAAAAAGGAAATAACACACATGTATATATCTATA [CACACA_site6856],8.99 ± 0.52
20,ATATATATATGTATGTATATATATATATATGTTTGA [GTGCAC_negctrl_site561],9.21 ± 0.057
21,GGGGACGCGGGTGGGGGTACTCACACTATGCAAAAT [XGTACX_site7745],9.52 ± 0.014
22,GTATCAATAAAAAACAGTACATATATAATATATTTA [XGTACX_site1083],8.76 ± 0.48

row,Sequence,gcPBM binding intensity (ln)
1,AAAATAATTTTATAGTTGCACTATATCGTATACAAT,8.84 ± 0.48
2,TGATTAAATCAAGAAAGTACAAAATGAAATATATAA [XGTACX_site4319],8.89 ± 0.32
3,ATATATTTTATACATACACACATATATATATTTTTT [CACACA_site3940],9.02 ± 0.44
4,TAAAGTGTAAAATTCACACACATATAAATAAATATA [CACACA_site6765],9.23 ± 0.45
5,AATTCAAAGAAAAACTGTACGTGTAGCAAACATCCT [XGTACX_site599],8.8 ± 0.43
6,TAATATGAAGATGGCAGTACTCTAGTCAATTTTTAC [XGTACX_site5375],8.77 ± 0.39
7,AAAATATATAAATATACATGCATAATTAATAGTATA [TGCATGCA_site804],8.87 ± 0.42
8,TTTAAAAAAAAAAATACACACATAAAAGTTTTCAAA [CACACA_site6471],8.62 ± 0.47
9,TACAAAAGCTATAACATTCACCACATTATAAAAATA [CACACA_negctrl_site1112],8.65 ± 0.48
10,TTTTCATTAAGATACTTATAATAGTTTATTAGTAAA [CACACA_negctrl_site586],8.16 ± 0.4
11,TTACAAATATTATAATGTACCCATTTTTTTTGCCTT [XGTACX_site6612],8.59 ± 0.64
12,TGAGATAAATGTGGTAGTACATTTTTTTTATATATA [XGTACX_site1918],8.49 ± 0.61
13,ATATCATCTTCTCTATCATTTTTTTTTTTTTTTTTT [CACACA_negctrl_site1220],8.62 ± 0.59
14,ATAAAAAAATCAGACACACACACGTAAACACATACA [CACACA_site5529],10.1 ± 0.16
15,CAAAAATTACCCTTGTGTACACATATATTATATGTA [XGTACX_site1124],8.99 ± 0.47
16,CTTTTTTTTTTTTTTTGTCCGTATGAGGGACCTATA [XGTACX_site8839],8.49 ± 0.74
17,TCCATTGTCACCTTTTGTACTTAAATTTTTTCCTCC [XGTACX_site1573],8.84 ± 0.42
18,ATGTTATAATTTAGTGTGCACATATTAAGAGGAACA,9.15 ± 0.42
19,ATATATATTTATATATGTACATATTTTTGTGTATTT [XGTACX_site1183],9.14 ± 0.44
20,AATAATAATAGAAACACACACACATTTTTAATAATA [CACACA_site1217],9.72 ± 0.3
21,ATATATATATATATATGTACATAATAATTTTATAAA [XGTACX_site5105],9.09 ± 0.18
22,CTACTTAATATTTGTACACACATATTTAACCTACTA [CACACA_site5725],9.23 ± 0.45
